Reference: PubChem BioAssay AID463173 (ICCB-Longwood Screening Facility, Harvard Medical School, 2010)
The whole screen tested about 52,000 compounds, of which about 4,300 (8.3%) were called active. No stated cut-off is given here; in the data, active means survival mostly below about 52% (no sharp cut-off); inactive means mostly above about 56%. The list shows a part of the results.

test system: DeltatarO mutant; assay: S. aureus survival, RN4220 and DeltatarO strains – OD600, teichoic acid synthesis inhibitors, primary screen (AID 463173); conditions: S. aureus RN4220 wild type/DeltatarO growth, OD600, 18 h, stronger effect = lower value, screened at 18.75 µg/mL (by protocol)

Structure (SMILES) | survival
Cc1c(C)n(Cc2ccccc2)c2ccc(C(=O)N3CCN(c4ccccc4)CC3)cc12 | inactive: 99%
COc1ccc(C(=O)NC(c2ccccc2Cl)c2cc(Cl)c3cccnc3c2O)cc1 (stereo unspecified) | inactive: 92%
Cc1ccc(OCC(=O)NCC(=O)OCc2cc(=O)n3nc(C(C)C)sc3n2)cc1 | inactive: 97%
CC(C)Oc1ccc(C(=O)N(Cc2ccc(N(C)C)cc2)Cc2ccco2)cc1 | inactive: 59%
COC(=O)CN(C#N)c1nc(C)cc(C)n1 | inactive: 94%
O=S(=O)(c1ccccc1)c1nc(-c2ccc(F)cc2)oc1NCc1ccccc1 | inactive: 67%
O=C(COc1ccccc1F)Nc1ccc2nc(SCC(=O)N3CCOCC3)sc2c1 | inactive: 79%
COc1ccc(CNC(=O)CCCc2nnc3n(C(C)C)c(=O)c4sccc4n23)cc1 | inactive: 82%
O=C(CN1CCOCC1)Nc1nc(-c2ccc3c(c2)CCN3S(=O)(=O)c2ccccc2)cs1 | inactive: 70%
Cc1ccc(S(=O)(=O)Nc2cc(Cl)c3oc4c(c3c2)CCCC4)cc1 | inactive: 117%
O=C(NCCc1ccccc1)c1ccc2c(c1)nc1n2CCOC1 | inactive: 109%
CCOc1ccc(CNC(=O)CSc2c3c(nc4cc(Cl)ccc24)CCCC3)cc1 | inactive: 51%
COC(=O)C1C(c2ccccc2)C(C(=O)N2CCOCC2)C1c1ccccc1 (stereo unspecified) | inactive: 107%
COc1ccccc1CNC(=O)CCS(=O)(=O)c1ccc2c(c1)oc(=O)n2C | inactive: 76%
CCOC(=O)c1cccc(NC(=O)CSc2ncc3c(n2)-c2ccc(Cl)cc2N(Cc2ccccc2)S3(=O)=O)c1 | inactive: 95%
Cc1c(-c2nsc(NC(=O)c3cccs3)n2)nnn1-c1ccc(F)cc1 | inactive: 82%
Cc1cccc(OC(=O)c2snnc2C)c1 | inactive: 88%
Cc1cccc(C)c1Nc1c(-c2ccccn2)nc2ccc(Cl)cn12 | inactive: 135%
COc1ccc(-c2nc(CSCC(=O)N3CCN(c4ccccc4F)CC3)c(C)o2)cc1 | active: 35%
Cn1cc(S(=O)(=O)N2CCCCCC2)cc1C(=O)NCc1ccc(F)cc1 | inactive: 76%
O=C(NCc1ccccc1)NC1COc2ccccc2C1 (stereo unspecified) | inactive: 115%
COc1ccc(-c2nsc3c(N4CCCCC4C)ncnc23)cc1 (stereo unspecified) | inactive: 87%
O=C(Nc1ccc(N2CCOCC2)cc1)C12CC3CC(CC(C3)C1)C2 | inactive: 92%

Structure (SMILES) | survival
CCN(C(=O)Cn1c(=O)oc2cc(S(=O)(=O)N3CCCCCC3)ccc21)c1cccc(C)c1 | inactive: 76%
O=c1[nH]n(CC2COC(c3ccccc3)O2)c(=O)c2ccccc12 (stereo unspecified) | inactive: 77%
O=C(CCS(=O)(=O)c1ccc(Br)s1)Nc1cc(C(F)(F)F)cc(C(F)(F)F)c1 | active: 42%
CCOc1ccccc1CNC(=O)c1ccc2nc(N3CCC(C)CC3)sc2c1 | inactive: 95%
Cc1ccccc1Nc1c(-c2ccc(N3CCOCC3)cc2)nc2cccc(C)n12 | inactive: 75%
CCC(C)Nc1nc2c(c(=O)[nH]c(=O)n2C)n1Cc1ccc(F)cc1 (stereo unspecified) | inactive: 73%
Cc1ccc(-n2ncc3c(NCCc4ccc(S(N)(=O)=O)cc4)ncnc32)cc1 | inactive: 84%
CCCCOC(=O)CSc1ncnc2sc3c(c12)CCC(C)C3 (stereo unspecified) | active: 17%
CC1=C(c2ccc(C)cc2)S(=O)(=O)NC1=NCc1ccccc1Cl | inactive: 77%
COC(=O)c1cc2sccc2n1Cc1nc(-c2cccc(Cl)c2)oc1C | inactive: 83%
C=Cc1ccc(Cn2c(C(=O)O)c(CNCCc3ccco3)c3ccc(C)cc32)cc1 | inactive: 119%
O=C(NCCc1ccc(Cl)cc1)c1ccc(Nc2nc3ccccc3n3nnnc23)cc1 | inactive: 94%
COCCn1c(-c2ccccc2)n[nH]c1=S | inactive: 105%
COc1ccc(CNCc2ccc(C(=O)O)s2)cc1 | inactive: 101%
Cc1cccc(NC(=O)C(=O)NCCCN2CCOCC2)c1 | inactive: 142%
CCOc1ccc(NC(=O)c2sc(-n3nc(C)c(CCC(C)C)c3C)nc2C)cc1 | inactive: 102%
COc1ccc(NC(=O)c2nc(SCc3ccc(F)cc3)ncc2Cl)cc1 | inactive: 69%
COc1cccc(CNC(=O)CN2C(=O)COc3ccc(S(=O)(=O)N4CCCCC4)cc32)c1 | inactive: 95%
CCn1cc2nc(SCc3cc(C)ccc3C)n(Cc3ccc(Cl)cc3)c(=O)c2n1 | inactive: 86%
CCN(CC)c1ccc(CN(C(=O)c2cc(=O)c3ccccc3o2)C2CCS(=O)(=O)C2)cc1 (stereo unspecified) | inactive: 52%
Nc1ccc2nc(-c3ccc(N)c(Cl)c3)[nH]c2c1 | inactive: 98%
Cn1cc(S(=O)(=O)N2CCCC2)cc1C(=O)Nc1ccc(F)cc1F | inactive: 77%
CCOC(=O)c1ccc(NC(=O)Cc2noc3ccc(C)cc23)cc1 | active: 45%

Structure (SMILES) | survival
Cn1ccc2cc(S(=O)(=O)N3CCCC(C(=O)NCc4ccccc4F)C3)ccc21 (stereo unspecified) | inactive: 92%
CCc1nc2ccccc2n1CC(C)C(=O)O (stereo unspecified) | inactive: 96%
CN(C)c1ccc(NC(=O)CSc2nc(N)cc(=O)[nH]2)cc1 | inactive: 101%
Cc1ccccc1-c1nc(CNC(=O)NC2CCCCC2)c(C)o1 | inactive: 67%
CCCCN(CCCC)CCCNC(=O)c1cc(-c2ccc(Cl)s2)nc2ccccc12 | inactive: 71%
CC(C)c1ccc(C2CC(=O)N3CN(C4CCCCC4)CSC3=C2C#N)cc1 (stereo unspecified) | inactive: 69%
COc1ccc(-n2ncc3c2ncn2nc(-c4ccc(OC)c(OC)c4)nc32)cc1 | inactive: 66%
CC1=C(C(=O)Nc2ccccc2)C(c2ccc(Br)cc2)n2nc(CCCO)nc2N1 (stereo unspecified) | inactive: 56%
CCCc1cc(=O)[nH]c(Nc2cc(Cl)cc(Cl)c2)n1 | active: 6%
COc1ccccc1N1CCN(C(=O)c2nn(C)c3c2CS(=O)(=O)c2ccccc2-3)CC1 | inactive: 61%
Cc1nc(-c2ccc(S(=O)(=O)N3CCN(c4ccccc4F)CC3)cc2)co1 | inactive: 94%
CCC(CC)C(=O)Nc1ccc(S(=O)(=O)N2CCC(c3nc4ccccc4s3)CC2)cc1 | inactive: 67%
FC(F)(F)c1cccc(Nc2nc3nonc3nc2Nc2ccc(Cl)cc2)c1 | active: -16%
COc1ccc(C)cc1NC(=O)CN(C)S(=O)(=O)c1ccc2c(c1)c(=O)n(C)c(=O)n2C | inactive: 78%
Cc1ccccc1NC(=O)c1c(C)oc2ccc(O)c(CN3CCCCCC3)c12 | inactive: 107%
CCN(C(=O)Cn1c(C(=O)OC)cc2sccc21)c1cccc(C)c1 | inactive: 93%
Cc1ccccc1NC(=O)c1sc2nc(-c3cc4ccccc4oc3=O)[nH]c(=O)c2c1C | inactive: 52%
COc1ccc(/C=C/C(=O)NCc2ccccn2)cc1OC | inactive: 81%
CCCn1cc(S(=O)(=O)c2ccc(C)c(C)c2)c(=O)c2cc(F)c(N3CCCCC3)cc21 | inactive: 113%
CC1SC(=NC(=O)c2ccco2)NC1=O (stereo unspecified) | inactive: 106%
O=C(CC(c1ccccc1)C1CCCCC1=O)c1ccco1 (stereo unspecified) | inactive: 81%
CCCCC12CN3CC(C)(CN(C1)C3c1ccc(OCc3ccccc3)cc1)C2=O (stereo unspecified) | inactive: 78%
Cc1ccc(-c2nc3sc(CCNC(=O)c4ccc(F)c(F)c4)c(C)n3n2)cc1 | inactive: 76%

Structure (SMILES) | survival
Cc1ccc(CNC(=O)CCCCCn2c(=O)c3sccc3n(CC(=O)N3CCCCC3C)c2=O)cc1 (stereo unspecified) | active: 48%
O=C(CCCCCn1c(=O)[nH]c2ccccc2c1=O)N1CCN(c2cccc(C(F)(F)F)c2)CC1 | inactive: 84%
O=C(C1CCN(S(=O)(=O)c2cccs2)CC1)N1CCN(c2ccccc2F)CC1 | inactive: 145%
Cc1cc(Nc2cc(Cl)ccc2C)n2nc(-c3ccccc3)nc2n1 | inactive: 49%
CC(=O)c1cccc(NC(=O)Cn2ccn3nc(-c4ccccc4)cc3c2=O)c1 | inactive: 83%
Cc1c(CC(=O)NCCc2ccccc2)c(=O)oc2c(C)c3occ(C(C)(C)C)c3cc12 | inactive: 62%
O=C(COc1ccccc1-c1nc(-c2ccccc2)no1)Nc1ccc([N+](=O)[O-])cc1 | active: 44%
Cc1cc(C)c2c(NC(=O)c3ccccc3Cl)c(C(=O)NCc3ccc(Cl)cc3)sc2n1 | inactive: 70%
Cc1ccc(CN(Cc2cccn2-c2nnc(N3CCCC3=O)s2)C(=O)Nc2ccccc2Cl)cc1 | inactive: 104%
Cc1nc2c(-c3ccc(F)cc3)c(C)nn2c(C)c1CCC(=O)NCc1ccc(F)cc1 | inactive: 78%
COc1ccc(OCCCn2c(C3CC(=O)N(c4ccc(F)cc4)C3)nc3ccccc32)cc1 (stereo unspecified) | inactive: 66%
CCOC(=O)c1c(C)[nH]c(CCC(=O)NCc2ccc(OC)cc2OC)c1C | inactive: 79%
CC1CCCCN1C(=O)Cn1nnc2c(cnn2-c2ccccc2)c1=O (stereo unspecified) | inactive: 79%
CC(=O)Nc1cccc(NC(=O)CSc2nccn2Cc2ccccc2)c1 | inactive: 91%
Cc1ccccc1-c1noc(-c2ccc(NCc3cccnc3)c([N+](=O)[O-])c2)n1 | inactive: 98%
CC1=C(c2ccc(C(C)C)cc2)S(=O)(=O)N=C1N1CCC(C(=O)NCc2ccc(C)o2)CC1 | inactive: 67%
CCOc1cccc2sc(N3CCN(C(=O)c4ccco4)CC3)nc12 | inactive: 76%
Cn1c(CN2CCOCC2)nc2cc(NC(=O)c3ccccc3[N+](=O)[O-])ccc21 | inactive: 100%
Cc1ccc(NC(=O)CN2C(=O)c3ccccc3C2=O)c(C)c1 | inactive: 99%
COc1cc(OC)c(NC(=O)c2ccc(-n3cnc4cccnc43)cc2)cc1Cl | active: 52%
CCOC(=O)CC(NC(=O)Cn1nnc(-c2ccc(Cl)cc2)n1)c1ccc(OC)cc1 (stereo unspecified) | inactive: 86%
O=C(NCCCN1CCN(c2ccc(F)cc2)CC1)Nc1ccccc1Cl | inactive: 118%
